# From patent US9340590B2 (priority 2011, dated 2016)
# Where two headings read alike, the source gives them in different places. For part of these data: Part of at least one peptide drawing is inferred or uncertain, most often the ends. For at least one compound, name, drawing or mass did not settle the structure. Positions of bridges follow the written chain, without caps; N, C: chain ends. Residues, ends and D or L forms follow the SMILES beside them.
# Columns and labels:
# Assay type in all cases: cell-based
# hNav1.7 = hNav1.7 (Homo sapiens, UniProt Q15858); settings: for IC50: IonWorks Quattro, read-out: IWQ Use Nav1.7
# hNav1.7, sequence (Q15858 whole entry, looked up): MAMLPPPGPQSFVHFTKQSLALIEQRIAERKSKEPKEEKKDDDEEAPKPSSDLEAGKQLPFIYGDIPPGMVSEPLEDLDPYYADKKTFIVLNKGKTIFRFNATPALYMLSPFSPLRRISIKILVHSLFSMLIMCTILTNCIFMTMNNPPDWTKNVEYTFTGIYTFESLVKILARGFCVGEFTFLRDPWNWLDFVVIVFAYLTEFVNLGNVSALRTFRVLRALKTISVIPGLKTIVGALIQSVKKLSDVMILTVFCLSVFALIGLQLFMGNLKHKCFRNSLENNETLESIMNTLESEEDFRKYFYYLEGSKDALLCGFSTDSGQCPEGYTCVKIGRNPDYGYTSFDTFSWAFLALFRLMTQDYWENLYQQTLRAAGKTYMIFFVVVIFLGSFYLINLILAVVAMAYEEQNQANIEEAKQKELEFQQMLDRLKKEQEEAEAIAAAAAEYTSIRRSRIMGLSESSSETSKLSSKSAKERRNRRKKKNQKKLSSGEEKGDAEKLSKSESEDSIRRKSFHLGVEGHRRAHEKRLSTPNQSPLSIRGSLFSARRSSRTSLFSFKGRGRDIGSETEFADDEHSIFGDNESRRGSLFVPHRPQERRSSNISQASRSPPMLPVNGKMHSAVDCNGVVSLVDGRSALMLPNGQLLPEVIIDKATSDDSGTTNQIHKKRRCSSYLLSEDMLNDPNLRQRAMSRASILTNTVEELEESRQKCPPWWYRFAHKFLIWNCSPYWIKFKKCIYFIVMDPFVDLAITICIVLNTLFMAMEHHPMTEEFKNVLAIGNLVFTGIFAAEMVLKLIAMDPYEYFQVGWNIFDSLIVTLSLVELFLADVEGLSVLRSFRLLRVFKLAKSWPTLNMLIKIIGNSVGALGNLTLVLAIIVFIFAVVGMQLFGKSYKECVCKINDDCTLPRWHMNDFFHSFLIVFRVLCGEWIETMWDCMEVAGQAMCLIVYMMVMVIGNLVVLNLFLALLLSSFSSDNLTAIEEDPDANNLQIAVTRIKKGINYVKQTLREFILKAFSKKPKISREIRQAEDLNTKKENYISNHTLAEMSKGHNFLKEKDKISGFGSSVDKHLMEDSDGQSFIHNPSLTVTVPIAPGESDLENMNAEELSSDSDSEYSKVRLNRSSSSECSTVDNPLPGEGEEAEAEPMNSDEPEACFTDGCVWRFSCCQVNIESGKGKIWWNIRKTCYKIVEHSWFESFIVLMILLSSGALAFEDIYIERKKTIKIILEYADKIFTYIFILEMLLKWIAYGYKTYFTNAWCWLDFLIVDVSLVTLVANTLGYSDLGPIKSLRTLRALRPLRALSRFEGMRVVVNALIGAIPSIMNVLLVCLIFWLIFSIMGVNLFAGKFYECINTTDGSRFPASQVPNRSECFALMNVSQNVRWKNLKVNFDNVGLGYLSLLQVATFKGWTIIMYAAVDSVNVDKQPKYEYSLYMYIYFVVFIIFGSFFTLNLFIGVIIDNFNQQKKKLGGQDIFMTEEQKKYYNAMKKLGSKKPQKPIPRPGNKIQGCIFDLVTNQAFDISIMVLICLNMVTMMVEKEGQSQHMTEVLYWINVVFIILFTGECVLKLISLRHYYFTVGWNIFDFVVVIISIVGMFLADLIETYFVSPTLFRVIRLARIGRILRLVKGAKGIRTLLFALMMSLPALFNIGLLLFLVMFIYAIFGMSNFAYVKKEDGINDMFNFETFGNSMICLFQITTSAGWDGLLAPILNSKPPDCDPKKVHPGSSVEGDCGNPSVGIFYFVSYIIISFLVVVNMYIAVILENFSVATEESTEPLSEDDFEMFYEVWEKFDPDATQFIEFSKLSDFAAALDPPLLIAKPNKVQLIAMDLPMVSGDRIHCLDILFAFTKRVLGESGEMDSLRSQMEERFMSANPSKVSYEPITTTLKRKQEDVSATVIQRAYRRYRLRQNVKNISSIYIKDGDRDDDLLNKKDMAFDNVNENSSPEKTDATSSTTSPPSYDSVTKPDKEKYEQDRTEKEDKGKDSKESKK
# hNav1.5 = hNav1.5 (Homo sapiens, UniProt Q14524); settings: read-out: IWQ Use Nav1.5
# hNav1.3 = hNav1.3 (Homo sapiens, UniProt Q9NY46); settings: for IC50: IonWorks Quattro, read-out: IWQ Use Nav1.3
# hNav1.3, sequence (Q9NY46 whole entry, looked up): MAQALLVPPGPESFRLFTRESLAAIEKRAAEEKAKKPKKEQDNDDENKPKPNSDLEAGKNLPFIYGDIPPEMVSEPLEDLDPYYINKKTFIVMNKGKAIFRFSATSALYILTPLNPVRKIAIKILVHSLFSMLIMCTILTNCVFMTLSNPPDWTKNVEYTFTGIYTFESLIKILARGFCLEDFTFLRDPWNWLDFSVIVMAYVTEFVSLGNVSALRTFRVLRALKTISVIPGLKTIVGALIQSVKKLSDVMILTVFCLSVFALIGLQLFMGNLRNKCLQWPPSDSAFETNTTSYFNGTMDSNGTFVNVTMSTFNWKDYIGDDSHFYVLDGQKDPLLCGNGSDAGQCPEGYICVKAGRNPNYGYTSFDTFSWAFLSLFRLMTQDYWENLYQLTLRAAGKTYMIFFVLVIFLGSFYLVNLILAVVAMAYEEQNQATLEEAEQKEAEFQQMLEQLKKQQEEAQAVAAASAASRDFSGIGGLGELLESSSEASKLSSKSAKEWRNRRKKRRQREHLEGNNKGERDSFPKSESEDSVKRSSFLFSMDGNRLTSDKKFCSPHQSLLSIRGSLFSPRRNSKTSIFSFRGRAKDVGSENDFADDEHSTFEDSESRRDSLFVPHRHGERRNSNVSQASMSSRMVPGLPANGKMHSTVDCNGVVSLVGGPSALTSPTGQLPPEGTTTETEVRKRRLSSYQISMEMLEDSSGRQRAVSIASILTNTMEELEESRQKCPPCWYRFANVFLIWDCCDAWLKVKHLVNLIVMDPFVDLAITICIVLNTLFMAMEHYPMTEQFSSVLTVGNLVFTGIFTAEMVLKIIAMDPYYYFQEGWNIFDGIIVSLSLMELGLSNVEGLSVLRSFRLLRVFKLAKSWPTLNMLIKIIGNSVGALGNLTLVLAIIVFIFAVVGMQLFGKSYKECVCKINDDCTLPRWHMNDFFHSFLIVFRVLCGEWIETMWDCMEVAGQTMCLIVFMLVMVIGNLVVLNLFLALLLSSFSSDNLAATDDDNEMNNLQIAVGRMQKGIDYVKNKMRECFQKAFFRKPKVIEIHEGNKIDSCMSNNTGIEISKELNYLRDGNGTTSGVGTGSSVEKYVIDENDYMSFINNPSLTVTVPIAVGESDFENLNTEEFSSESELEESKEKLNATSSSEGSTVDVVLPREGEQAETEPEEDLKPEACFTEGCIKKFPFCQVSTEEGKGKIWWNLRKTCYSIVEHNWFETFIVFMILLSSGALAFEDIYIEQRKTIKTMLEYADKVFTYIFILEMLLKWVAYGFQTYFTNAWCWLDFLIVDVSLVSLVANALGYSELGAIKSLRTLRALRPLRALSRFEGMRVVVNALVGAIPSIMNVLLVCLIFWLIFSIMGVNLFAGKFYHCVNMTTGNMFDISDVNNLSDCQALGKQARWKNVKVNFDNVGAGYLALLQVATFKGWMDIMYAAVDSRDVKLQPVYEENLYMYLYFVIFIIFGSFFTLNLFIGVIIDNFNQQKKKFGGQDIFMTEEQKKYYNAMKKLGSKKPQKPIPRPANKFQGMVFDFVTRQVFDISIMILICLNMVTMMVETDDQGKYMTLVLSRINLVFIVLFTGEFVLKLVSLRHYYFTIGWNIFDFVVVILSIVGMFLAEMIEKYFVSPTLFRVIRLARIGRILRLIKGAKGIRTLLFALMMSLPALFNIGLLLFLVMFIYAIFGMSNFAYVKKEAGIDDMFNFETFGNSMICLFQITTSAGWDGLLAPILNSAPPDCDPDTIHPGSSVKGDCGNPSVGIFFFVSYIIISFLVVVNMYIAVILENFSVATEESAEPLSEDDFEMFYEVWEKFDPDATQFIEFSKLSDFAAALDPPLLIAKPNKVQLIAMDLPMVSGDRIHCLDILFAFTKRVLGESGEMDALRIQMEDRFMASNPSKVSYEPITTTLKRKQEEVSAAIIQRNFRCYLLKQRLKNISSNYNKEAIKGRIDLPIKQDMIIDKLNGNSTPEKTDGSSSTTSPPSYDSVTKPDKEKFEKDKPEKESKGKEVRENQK
# [1] = IonWorks Quattro, use-dependent block
Structure (SMILES),IC50 (hNav1.7; use-dependent block) [nM],IC50 (hNav1.5; [1]) [nM],IC50 (hNav1.3; use-dependent block) [nM],further results
CC[C@H](C)[C@@H]1NC(=O)[C@@H]2CSSC[C@@H]3NC(=O)[C@H](C(C)C)NC(=O)[C@H](CC(C)C)NC(=O)[C@H](Cc4cn(CCOCCOCCOCCOCCOCCOCCOCCOCCOCCOCCN)nn4)NC(=O)[C@@H]4CCCN4C(=O)[C@H](CCCNC(=N)N)NC(=O)[C@H](CSSC[C@H](NC(=O)[C@@H](N)CC(=O)O)C(=O)N[C@@H](CC(C)C)C(=O)NCC(=O)N[C@@H](Cc4ccccc4)C(=O)N[C@@H](Cc4ccccc4)C(=O)N[C@@H](CCCNC(=N)N)C(=O)N[C@@H](CCCCN)C(=O)N2)NC(=O)[C@H](CSSC[C@@H](C(=O)N[C@@H](CCCCN)C(=O)N[C@@H](Cc2ccc(O)cc2)C(=O)N[C@H](C(=O)N[C@@H](Cc2ccccc2)C(N)=O)C(C)C)NC(=O)[C@H](Cc2c[nH]c4ccccc24)NC(=O)[C@H](CCCCN)NC(=O)[C@H](Cc2c[nH]cn2)NC(=O)[C@H]([C@@H](C)O)NC(=O)[C@H](CCCNC(=N)N)NC(=O)[C@H](CO)NC3=O)NC(=O)[C@H](CCCCN)NC(=O)[C@H](CC(=O)O)NC(=O)[C@H](CC(N)=O)NC(=O)[C@H](CC(=O)O)NC(=O)[C@@H]2CCCN2C1=O [compound 539],538,8900,250,
CC[C@H](C)[C@@H]1NC(=O)[C@@H]2CSSC[C@@H]3NC(=O)[C@H](C(C)C)NC(=O)[C@H](CC(C)C)NC(=O)[C@H](CC(N)=O)NC(=O)[C@@H]4CCCN4C(=O)[C@H](CCCNC(=N)N)NC(=O)[C@H](CSSC[C@H](NC(=O)[C@@H](N)Cc4cn(CCOCCOCCOCCOCCOCCOCCOCCOCCOCCOCCN)nn4)C(=O)N[C@@H](CC(C)C)C(=O)NCC(=O)N[C@@H](Cc4ccccc4)C(=O)N[C@@H](Cc4ccccc4)C(=O)N[C@@H](CCCNC(=N)N)C(=O)N[C@@H](CCCCN)C(=O)N2)NC(=O)[C@H](CSSC[C@@H](C(=O)N[C@@H](CCCCN)C(=O)N[C@@H](Cc2ccc(O)cc2)C(=O)N[C@H](C(=O)N[C@@H](Cc2cccc4ccccc24)C(N)=O)C(C)C)NC(=O)[C@H](Cc2c[nH]c4ccccc24)NC(=O)[C@H](CCCCN)NC(=O)[C@H](Cc2c[nH]cn2)NC(=O)[C@H]([C@@H](C)O)NC(=O)[C@H](CCCNC(=N)N)NC(=O)[C@H](CO)NC3=O)NC(=O)[C@H](CCCCN)NC(=O)[C@H](CC(=O)O)NC(=O)[C@H](CC(N)=O)NC(=O)[C@H](CC(=O)O)NC(=O)[C@@H]2CCCN2C1=O [compound 551],39,4300,14,
CC[C@H](C)[C@@H]1NC(=O)[C@@H]2CSSC[C@@H]3NC(=O)[C@H](C(C)C)NC(=O)[C@H](CC(C)C)NC(=O)[C@H](CC(N)=O)NC(=O)[C@@H]4CCCN4C(=O)[C@H](CCCNC(=N)N)NC(=O)[C@H](CSSC[C@H](NC(=O)[C@@H](N)CC(=O)O)C(=O)N[C@@H](CC(C)C)C(=O)NCC(=O)N(C)[C@@H](C(C)C)C(=O)N[C@@H](CCSC)C(=O)N[C@@H](CCCNC(=N)N)C(=O)N[C@@H](CCCCN)C(=O)N2)NC(=O)[C@H](CSSC[C@@H](C(=O)N[C@@H](CCCCN)C(=O)N[C@@H](Cc2ccc(O)cc2)C(=O)N[C@H](C(=O)N[C@@H](Cc2ccccc2)C(N)=O)C(C)C)NC(=O)[C@H](Cc2c[nH]c4ccccc24)NC(=O)[C@H](CCCCN)NC(=O)[C@H](Cc2c[nH]cn2)NC(=O)[C@H]([C@@H](C)O)NC(=O)[C@H](CCCNC(=N)N)NC(=O)[C@H](CO)NC3=O)NC(=O)[C@H](CCCCN)NC(=O)[C@H](CC(=O)O)NC(=O)[C@H](CC(N)=O)NC(=O)[C@H](CC(=O)O)NC(=O)[C@@H]2CCCN2C1=O [compound 656],,,,"IC50 (hNav1.7; use-dependent protocol, hNav1.7): 1200 nM; IC50 (hNav1.5): > 5000 nM; IC50 (hNav1.3; use-dependent protocol, hNav1.3): 2500 nM"
CC[C@H](C)[C@@H]1NC(=O)[C@@H]2CSSC[C@@H]3NC(=O)[C@H](C(C)C)NC(=O)[C@H](CC(C)C)NC(=O)[C@H](CC(N)=O)NC(=O)[C@@H]4CCCN4C(=O)[C@H](CCCNC(=N)N)NC(=O)[C@H](CSSC[C@H](NC(=O)[C@@H](N)CC(=O)O)C(=O)N[C@@H](CC(C)C)C(=O)NCC(=O)N[C@@H](C)C(=O)N[C@@H](Cc4ccccc4)C(=O)N[C@@H](CCCNC(=N)N)C(=O)N[C@@H](Cc4cn(CCOCCOCCOCCOCCOCCOCCOCCOCCOCCOCCN)nn4)C(=O)N2)NC(=O)[C@H](CSSC[C@@H](C(=O)N[C@@H](CCCCN)C(=O)N[C@@H](Cc2ccc(O)cc2)C(=O)N[C@H](C(=O)N[C@@H](Cc2ccccc2)C(N)=O)C(C)C)NC(=O)[C@H](Cc2c[nH]c4ccccc24)NC(=O)[C@H](CCCCN)NC(=O)[C@H](Cc2c[nH]cn2)NC(=O)[C@H]([C@@H](C)O)NC(=O)[C@H](CCCNC(=N)N)NC(=O)[C@H](CO)NC3=O)NC(=O)[C@H](CCCCN)NC(=O)[C@H](CC(=O)O)NC(=O)[C@H](CC(N)=O)NC(=O)[C@H](CC(=O)O)NC(=O)[C@@H]2CCCN2C1=O [compound 567],2300,> 5000,1400,
CC[C@H](C)[C@@H]1NC(=O)[C@@H]2CSSC[C@@H]3NC(=O)[C@H](C(C)C)NC(=O)[C@H](CC(C)C)NC(=O)[C@H](CC(N)=O)NC(=O)[C@@H]4CCCN4C(=O)[C@H](CCCNC(=N)N)NC(=O)[C@H](CSSC[C@H](NC(=O)[C@@H](N)CC(=O)O)C(=O)N[C@@H](CC(C)C)C(=O)NCC(=O)N[C@@H](C)C(=O)N[C@@H](Cc4ccccc4)C(=O)N[C@@H](CCCNC(=N)N)C(=O)N[C@@H](CCCCN)C(=O)N2)NC(=O)[C@H](CSSC[C@@H](C(=O)N[C@@H](CCCCN)C(=O)N[C@@H](Cc2ccc(O)cc2)C(=O)N[C@H](C(=O)N[C@@H](Cc2ccccc2)C(N)=O)C(C)C)NC(=O)[C@H](Cc2c[nH]c4ccccc24)NC(=O)[C@H](CCCCN)NC(=O)[C@H](Cc2c[nH]cn2)NC(=O)[C@H]([C@@H](C)O)NC(=O)[C@H](CCCNC(=N)N)NC(=O)[C@H](Cc2cn(CCOCCOCCOCCOCCOCCOCCOCCOCCOCCOCCN)nn2)NC3=O)NC(=O)[C@H](CCCCN)NC(=O)[C@H](CC(=O)O)NC(=O)[C@H](CC(N)=O)NC(=O)[C@H](CC(=O)O)NC(=O)[C@@H]2CCCN2C1=O [compound 573],≥ 5000,> 5000,> 5000,
CC[C@H](C)[C@@H]1NC(=O)[C@@H]2CSSC[C@@H]3NC(=O)[C@H](C(C)C)NC(=O)[C@H](CC(C)C)NC(=O)[C@H](CC(N)=O)NC(=O)[C@@H]4CCCN4C(=O)[C@H](CCCNC(=N)N)NC(=O)[C@H](CSSC[C@H](NC(=O)[C@@H](N)CC(=O)O)C(=O)N[C@@H](CC(C)C)C(=O)NCC(=O)N[C@@H](C)C(=O)N[C@@H](Cc4ccccc4)C(=O)N[C@@H](CCCNC(=N)N)C(=O)N[C@@H](CCCCN)C(=O)N2)NC(=O)[C@H](CSSC[C@@H](C(=O)N[C@@H](CCCCN)C(=O)N[C@@H](Cc2ccc(O)cc2)C(=O)N[C@H](C(=O)N[C@@H](Cc2ccccc2)C(N)=O)C(C)C)NC(=O)[C@H](Cc2c[nH]c4ccccc24)NC(=O)[C@H](CCCCN)NC(=O)[C@H](Cc2cn(CCOCCOCCOCCOCCOCCOCCOCCOCCOCCOCCN)nn2)NC(=O)[C@H]([C@@H](C)O)NC(=O)[C@H](CCCNC(=N)N)NC(=O)[C@H](CO)NC3=O)NC(=O)[C@H](CCCCN)NC(=O)[C@H](CC(=O)O)NC(=O)[C@H](CC(N)=O)NC(=O)[C@H](CC(=O)O)NC(=O)[C@@H]2CCCN2C1=O [compound 575],≥ 5000,> 5000,> 5000,
CC[C@H](C)[C@@H]1NC(=O)[C@@H]2CSSC[C@@H]3NC(=O)[C@H](C(C)C)NC(=O)[C@H](CC(C)C)NC(=O)[C@H](CC(N)=O)NC(=O)[C@@H]4CCCN4C(=O)[C@H](CCCNC(=N)N)NC(=O)[C@H](CSSC[C@H](NC(=O)[C@@H](N)CC(=O)O)C(=O)N[C@@H](CC(C)C)C(=O)NCC(=O)N[C@@H](Cc4ccccc4)C(=O)N[C@@H](Cc4ccccc4)C(=O)N[C@@H](CCCNC(=N)N)C(=O)N[C@@H](CCCCN)C(=O)N2)NC(=O)[C@H](CSSC[C@@H](C(=O)N[C@@H](CCCCN)C(=O)N[C@@H](Cc2ccc(O)cc2)C(=O)N[C@H](C(=O)N[C@@H](Cc2cccc4ccccc24)C(N)=O)C(C)C)NC(=O)[C@H](Cc2c[nH]c4ccccc24)NC(=O)[C@H](CCCCN)NC(=O)[C@H](Cc2cn(CCOCCOCCOCCOCCOCCOCCOCCOCCOCCOCCN)nn2)NC(=O)[C@H]([C@@H](C)O)NC(=O)[C@H](CCCNC(=N)N)NC(=O)[C@H](CO)NC3=O)NC(=O)[C@H](CCCCN)NC(=O)[C@H](CC(=O)O)NC(=O)[C@H](CC(N)=O)NC(=O)[C@H](CC(=O)O)NC(=O)[C@@H]2CCCN2C1=O [compound 557],900,> 5000,820,
"CC(C)C[C@@H]1NC(=O)[C@@H](NC(=O)[C@@H](N)CC(=O)O)CSSC[C@@H]2NC(=O)[C@@H]3CSSC[C@@H](C(=O)N[C@@H](CCCCN)C(=O)N[C@@H](Cc4ccc(O)cc4)C(=O)N[C@@H](CCCCN)C(=O)N[C@@H](CC(C)C)C(=O)N[C@@H](Cc4c[nH]c5ccccc45)C(=O)N[C@@H](CCCCN)C(=O)O)NC(=O)[C@H](Cc4c[nH]c5ccccc45)NC(=O)[C@H](CCCCN)NC(=O)[C@H](CC(=O)O)NC(=O)[C@H](CCCNC(=N)N)NC(=O)[C@H](CCCNC(=N)N)NC(=O)[C@H](CC(N)=O)NC(=O)[C@H](CSSC[C@H](NC(=O)CNC(=O)[C@H](CCCCN)NC(=O)[C@H](Cc4ccccc4)NC(=O)[C@H](Cc4c[nH]c5ccccc45)NC(=O)CNC1=O)C(=O)N[C@@H](CC(=O)O)C(=O)N1CCC[C@H]1C(=O)N[C@@H](CC(=O)O)C(=O)N[C@@H](CC(N)=O)C(=O)N[C@@H](CC(=O)O)C(=O)N[C@@H](CCCCN)C(=O)N3)NC(=O)[C@H](CCCCN)NC(=O)[C@H](Cc1ccc(O)cc1)NC(=O)[C@H](CC(N)=O)NC(=O)[C@H](CCC(=O)O)NC2=O [SEQ ID NO: 473] (H-DCLGWFKGCDPDNDKCCENYKCNRRDKWCKYKLWK-OH; disulfide 2-17, 9-22, 16-29)",,,,Nav1.4/Nav1.7 (hNav1.7; ratio of IWQ Use values): 1.0; Nav1.4/Nav1.3 (hNav1.3; ratio of IWQ Use values): 2.8; Nav1.7/Nav1.3 (hNav1.3; ratio of IWQ Use values): 2.9
